# Publication PMC5700166
# The entries are a selection whose mix differs from that of the whole data set. The list includes weakly bound sequences.
# Molecular target: T1, GST-Dm-Relish (UniProt Q94527)
# T1 sequence: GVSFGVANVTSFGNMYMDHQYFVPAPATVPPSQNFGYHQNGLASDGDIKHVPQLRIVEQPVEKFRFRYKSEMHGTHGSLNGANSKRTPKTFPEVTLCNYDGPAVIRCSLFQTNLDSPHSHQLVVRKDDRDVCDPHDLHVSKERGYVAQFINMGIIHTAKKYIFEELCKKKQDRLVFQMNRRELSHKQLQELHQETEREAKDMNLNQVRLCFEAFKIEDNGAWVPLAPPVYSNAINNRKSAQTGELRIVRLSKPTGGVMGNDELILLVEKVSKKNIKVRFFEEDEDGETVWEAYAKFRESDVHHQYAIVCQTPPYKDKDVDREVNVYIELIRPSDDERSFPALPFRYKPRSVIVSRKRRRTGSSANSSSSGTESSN
# Experiment: protein-binding microarray (PBM)
# Settings: PBM: ~300 nM protein, 6 mM HEPES pH 7.8, 80 mM KCl, 0.5 mM EDTA, 0.5 mM EGTA, 6% glycerol, 35 ng/ul poly-dIdC, 1% milk, 1 h, room temperature; Ap Aiptasia and Nv Nematostella (sea anemones) / Co Capsaspora / Aq Amphimedon (sponge) / Dm Drosophila / Hu human; RHD is the Rel homology domain; high values mean tight binding; most listed sequences are background and not binding sites; double strand, one strand shown
row,Sequence,binding signal [z-score]
1,CCGATTAACATCAGGCAAAACCCTGATGTTAATCGGGTCTTGATTCGCTTGACGCTGCTG,0.922
2,CCGATTAACATCAAATAGGCTCATGATGTTAATCGGGTCTTGATTCGCTTGACGCTGCTG,-1.07
3,CCGATTAACATCAAGTCACGGGTTGATGTTAATCGGGTCTTGATTCGCTTGACGCTGCTG,-0.163
4,CCGATTAACATCAACTAAATTCCTGATGTTAATCGGGTCTTGATTCGCTTGACGCTGCTG,0.419
5,CCGATTAACATCACTGGGATTGATGATGTTAATCGGGTCTTGATTCGCTTGACGCTGCTG,0.0851
6,CCGATTAACATCAACCGAACTTTTGATGTTAATCGGGTCTTGATTCGCTTGACGCTGCTG,-0.0344
7,CCGATTAACATCACGCCGACTTTTGATGTTAATCGGGTCTTGATTCGCTTGACGCTGCTG,0.0745
8,CCGATTAACATCAGGGTTCAGGCTGATGTTAATCGGGTCTTGATTCGCTTGACGCTGCTG,0.424
9,CCGATTAACATCACAATGTGTGATGATGTTAATCGGGTCTTGATTCGCTTGACGCTGCTG,0.249
10,CCGATTAACATCATATGGGATCGTGATGTTAATCGGGTCTTGATTCGCTTGACGCTGCTG,0.314
11,CCGATTAACATCAAGCGATCTCCTGATGTTAATCGGGTCTTGATTCGCTTGACGCTGCTG,-1.25
12,CCGATTAACATCAGGAATTTGCATGATGTTAATCGGGTCTTGATTCGCTTGACGCTGCTG,0.222
13,CCGATTAACATCAAGCGAATGTATGATGTTAATCGGGTCTTGATTCGCTTGACGCTGCTG,-0.434
14,CCGATTAACATCAATTTCGCGTTTGATGTTAATCGGGTCTTGATTCGCTTGACGCTGCTG,-0.359
15,CCGATTAACATCAAACATGGGCTTGATGTTAATCGGGTCTTGATTCGCTTGACGCTGCTG,-0.198
16,CCGATTAACATCAGGAATTTCACTGATGTTAATCGGGTCTTGATTCGCTTGACGCTGCTG,0.486
17,CCGATTAACATCAAGATGAACCATGATGTTAATCGGGTCTTGATTCGCTTGACGCTGCTG,-0.979
18,CCGATTAACATCAGCGCCAGAGATGATGTTAATCGGGTCTTGATTCGCTTGACGCTGCTG,-1.18
19,CCGATTAACATCAGGAATTTCAATGATGTTAATCGGGTCTTGATTCGCTTGACGCTGCTG,-0.0399
20,CCGATTAACATCACGCTGCACGCTGATGTTAATCGGGTCTTGATTCGCTTGACGCTGCTG,-0.233
21,CCGATTAACATCACAGCGTGAGGTGATGTTAATCGGGTCTTGATTCGCTTGACGCTGCTG,1.34
22,CCGATTAACATCAAAAAATCCCGTGATGTTAATCGGGTCTTGATTCGCTTGACGCTGCTG,8.31
23,CCGATTAACATCAGGACACTCCCTGATGTTAATCGGGTCTTGATTCGCTTGACGCTGCTG,0.845
24,CCGATTAACATCATTCTTTTAGATGATGTTAATCGGGTCTTGATTCGCTTGACGCTGCTG,-0.463
25,CCGATTAACATCATTGCTGAGAATGATGTTAATCGGGTCTTGATTCGCTTGACGCTGCTG,-0.446
26,CCGATTAACATCACGAGGTTGACTGATGTTAATCGGGTCTTGATTCGCTTGACGCTGCTG,-0.488
27,CCGATTAACATCAGATAAATTCCTGATGTTAATCGGGTCTTGATTCGCTTGACGCTGCTG,0.573
28,CCGATTAACATCAGATCACCACATGATGTTAATCGGGTCTTGATTCGCTTGACGCTGCTG,-0.219
29,CCGATTAACATCATCTCCAGGTCTGATGTTAATCGGGTCTTGATTCGCTTGACGCTGCTG,-1.22
